The full ranking holds about 33,000 sequences; the median of “E-score (-0.5 to 0.5)” is about -0.017, and the highest 2% start at about 0.3. This is one part of the list.
molecular target: T1, Sut1 (UniProt P53032); test: PBM E-score (8-mer binding enrichment) (E-score (-0.5 to 0.5)); higher = stronger / more preferred TF binding; most listed sequences are background and not binding sites; settings: protein concentration: 200 nM; construct: GST-full length
T1 sequence: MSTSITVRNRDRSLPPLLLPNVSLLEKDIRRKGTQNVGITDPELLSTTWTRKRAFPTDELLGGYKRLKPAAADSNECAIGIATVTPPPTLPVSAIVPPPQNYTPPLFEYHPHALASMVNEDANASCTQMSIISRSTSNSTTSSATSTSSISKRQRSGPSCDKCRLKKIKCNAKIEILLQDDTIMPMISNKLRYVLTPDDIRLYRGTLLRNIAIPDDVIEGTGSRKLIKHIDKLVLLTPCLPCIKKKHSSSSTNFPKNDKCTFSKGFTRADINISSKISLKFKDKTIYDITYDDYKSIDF
How it was run: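 Detection of bound protein used fluorescent anti-GST, with scans normalised by masliner. The proteins were GST-tagged yeast transcription factors applied at about 100-200 nM to universal all-10-mer Agilent arrays made double-stranded by primer extension. Each ungapped eight-base word, pooled with its reverse complement, was scored with an E-score from the Universal PBM Analysis Suite.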

| Sequence | PBM E-score |
| --- | --- |
| ATCAAGCC | 0.0302 |
| AAAGTGGT | 0.0517 |
| ACACATAC | 0.214 |
| GGTCAGTA | -0.19 |
| GGATGCCA | -0.207 |
| GGGAATAC | -0.0577 |
| TAGCACTA | -0.0357 |
| CCACTTGA | 0.0277 |
| ACAGTCTA | -0.115 |
| GCTATTAC | -0.019 |
| CGTTAATC | 0.0139 |
| CGAGGGGA | -0.116 |
| ACCAACCT | -0.0379 |
| ATCCCCCG | -0.0337 |
| CTAAACAA | 0.132 |
| CGGGGCTC | 0.0261 |
| AGGTAAAT | 0.137 |
| GGTGATAA | 0.0162 |
| GAACCGAA | 0.13 |
| AAATCCGG | 0.36 |
| GGGAAACC | 0.00128 |
| GGAGCAAC | 0.018 |
| ACAGCGCT | -0.251 |
| CATCACCC | -0.159 |
| AAGTTGAC | -0.11 |

| Sequence | PBM E-score |
| --- | --- |
| AGCGAAGC | -0.0219 |
| GTGAAAAC | 0.0927 |
| CAAAAGCA | 0.126 |
| CAGGAAAC | -0.133 |
| AACTTACG | 0.216 |
| TTAATCAA | 0.251 |
| GTACTATA | 0.286 |
| CCGAGACC | 0.128 |
| CTTGTTCC | -0.0526 |
| CATTGTAG | 0.00424 |
| ACGACCTC | 0.128 |
| AGGTATTG | 0.0471 |
| GAACACTA | 0.13 |
| ATTGTTTA | 0.266 |
| ATATACAT | 0.284 |
| CCTCCAGC | -0.352 |
| GAAACTAC | 0.145 |
| AAATTCCT | 0.0865 |
| CGTGTCAG | 0.154 |
| ACGCACGA | -0.0303 |
| CAGGCTAG | -0.258 |
| ATAGTTCG | 0.041 |
| CTGTGAAA | 0.145 |
| GGACGCAA | -0.123 |
| ATAGTAAC | 0.153 |

| Sequence | PBM E-score |
| --- | --- |
| ATGCGTCC | -0.205 |
| AACACAAA | 0.153 |
| TCAAAGCA | 0.112 |
| CATTGTCG | 0.0481 |
| ACGTTACT | 0.044 |
| ACAGTCAA | -0.0644 |
| AGAGTAAA | 0.0337 |
| GCGAGCTA | 0.087 |
| CTGTGTGC | -0.185 |
| CACAGGAG | -0.186 |
| CTCGAACC | -0.0591 |
| CGTGCCCC | -0.249 |
| CGCTACGA | 0.0897 |
| TAACAGTA | 0.0897 |
| GATAGCCA | -0.0381 |
| AGGCCCAG | -0.194 |
| CATGCTAC | -0.141 |
| ACCGACAG | -0.146 |
| ACCGAGTC | -0.016 |
| ACTATATA | 0.308 |
| CCCGACCC | -0.218 |
| CTGATAAA | 0.291 |
| AGTTGAGA | 0.0527 |
| GCTTGCTA | -0.204 |
| CGCACACA | -0.161 |

| Sequence | PBM E-score |
| --- | --- |
| AAGTTTCA | 0.17 |
| CGTCAGTC | 0.0155 |
| GGCGCCAA | -0.117 |
| GGCGGCCA | -0.169 |
| ATTTACGC | 0.0857 |
| ATATTCGG | 0.0593 |
| TATACTAA | 0.197 |
| ACGTGCCA | -0.159 |
| CCCGCGGG | -0.159 |
| ATCGTCTG | -0.131 |
| GGACCGTA | -0.172 |
| AACAACGT | 0.0217 |
| GCACAGCA | -0.0831 |
| GCACAGAA | 0.0732 |
| CATACCAA | -0.0452 |
| CTGCGTTC | 0.0373 |
| CCGGAGTA | 0.49 |
| ACTGGGAC | -0.0864 |
| AGACGATC | -0.165 |
| AACCTCCT | -0.164 |
| GACCTGGA | -0.194 |
| AAAGAATG | 0.244 |
| AGCCTAAC | -0.192 |
| AGTGGCCC | -0.078 |
| CAATCCGA | 0.0936 |

| Sequence | PBM E-score |
| --- | --- |
| GCCCCACC | -0.0533 |
| AGGTCATA | 0.014 |
| ACATAAAT | 0.184 |
| CAGTCGAG | -0.103 |
| GGACTAAC | 0.277 |
| AGCAACAT | 0.0299 |
| CCGAGCTC | 0.209 |
| CCAGTGCA | -0.238 |
| CCCCGGGA | -0.0206 |
| AGAAGATC | 0.0447 |
| AAACCACC | -0.0477 |
| CCTGCGGC | -0.292 |
| ACTACCCA | -0.256 |
| GGCCCAGA | -0.239 |
| AAGCCGAT | 0.104 |
| ATAATCAC | 0.107 |
| TTACAAAA | 0.276 |
| CCTCGTCC | -0.132 |
| ATATGTTC | 0.188 |
| GGTATGAC | -0.312 |
| CCTCTGAA | -0.16 |
| CCGTGCTC | 0.0504 |
| TGAGATAA | 0.0925 |
| ACTTCGAC | 0.0552 |
| CGCCAAAA | 0.103 |

| Sequence | PBM E-score |
| --- | --- |
| ATCCAAGA | 0.0917 |
| CTCTGATC | -0.066 |
| CATGCTGG | -0.231 |
| ACTCCGCG | 0.476 |
| GTGGAATA | -0.0263 |
| ACGACAGA | -0.198 |
| GACGAGCA | -0.106 |
| ATGTTGTG | 0.0782 |
| ACCGGCGC | 0.0837 |
| ACCGCCAA | -0.114 |
| AGGAACTG | -0.142 |
| CATTCTTA | 0.0137 |
| GTGGCGTA | -0.125 |
| TCGACCAA | -0.155 |
| TATTCCAA | 0.0744 |
| CTGTTACC | -0.141 |
| GCGTAGAC | -0.135 |
| ATGTGGAC | -0.0954 |
| CTACTTGA | -0.145 |
| ATGGACGA | 0.0709 |
| GCTCTAGA | -0.125 |
| CCTTCTTA | -0.0123 |
| GGCAGCCA | -0.102 |
| CACAACCG | 0.0517 |
| ATAAGATC | 0.00037 |

| Sequence | PBM E-score |
| --- | --- |
| CAGATCCC | -0.176 |
| AGGACCGG | 0.0365 |
| GGACCGGA | 0.34 |
| CTGGACGC | -0.304 |
| CGTGAAGA | -0.026 |
| GAATATCA | 0.0118 |
| ACCAAAAC | 0.0916 |
| TAACACTA | 0.224 |
| ATGTCTCC | 0.123 |
| ACCGGGAG | -0.0335 |
| AGTGCGGG | 0.0372 |
| CATGCTCC | -0.217 |
| AGTACTAG | -0.00814 |
| TGGAAAAA | 0.119 |
| CGACCAAG | -0.158 |
| AGAACAGA | 0.126 |
| CTTTTGAC | 0.0348 |
| GAGAATCA | 0.0959 |
| TATCCGCA | 0.169 |
| GATGTCAA | 0.0214 |
| CATGGGGA | -0.257 |
| ATTCCAGA | -0.00019 |
